Measurements published in PubChem BioAssay AID686979 (National Center for Advancing Translational Sciences (NCATS), 2013).
“And” between values parts separate entries of the source, which are not always exact repeats. Equal entries are not always repeated. Among all 420,000 compounds or so, about 50,000 (12%) were called active. This list was built around the results that the source calls inconclusive (neither active nor inactive); the mix of calls is not that of the screen. The call rests on the fitted dose curve; in most records, active means well fitted inhibition curve with a large enough effect; inconclusive means small, poorly fitted or top-dose-only effect; inactive means flat fitted curve, though single readings scatter. No potency is given beside an inconclusive call; the fits are too rough.

Assay: qHTS for Inhibitors of human tyrosyl-DNA phosphodiesterase 1 (TDP1): qHTS in cells in presence of CPT; further: nearly all actives have a fitted effect of over 55% in size
Details: chicken DT40 Tdp1-/-;hTDP1 cells + 20 nM CPT, ATP luminescence, 48 h; activity change, negative = growth inhibition: at 46.2 µM (top of the series)
Outline: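 Chicken DT40 Tdp1-/- cells stably complemented with human TDP1 were seeded at 400 cells/well in medium containing 20 nM camptothecin, exposed to pin-transferred compounds, and grown at 37 °C for at least 48 hr. Viability was read as ATP luminescence.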
On the % scale 0 is the no-effect control and ±100 the full control effect; potency means the concentration at half of the fitted maximal effect; tags describe the fitted curve by direction and shape.

SMILES	Potency	activity change, negative = growth inhibition
CN1/C(=C\C=Nc2cc(S(=O)(=O)N3CCOCC3)ccc2N2CCOCC2)C(C)(C)c2ccccc21	inconclusive [inhibitor, single point]	
CCCCCCNC(=O)C(C#N)c1nc2ccccc2nc1N1CCOCC1 (stereo unspecified)	inconclusive [inhibitor, full curve, poor fit]	
O=C(Nc1nc(-c2ccccn2)cs1)Nc1ccc(F)cc1F	active: 4.61 µM	
Cc1cccc(NC(=O)C2CCCN(c3ncnc4c3nc3n4CCCCC3)C2)n1 (stereo unspecified)	active: 10.3 µM	
COc1cccc(OC(=O)CSc2nnc(-c3ccccc3OC)o2)c1		inactive: 0.896%
O=C(NCC1CCCN1S(=O)(=O)c1cccs1)c1ccc(F)c(F)c1 (stereo unspecified)	inconclusive [inhibitor, single point]	
COc1ccc(OC)c(S(=O)(=O)Nc2cccc3c(O)cccc23)c1	active: 20.6 µM	
CN(C)c1nc(OCCNC(=O)Nc2ccc(Cl)cc2)nc(N(C)C)n1		inactive: -16.5%
COc1ccc(NC(=S)N2CCN(c3ncccn3)CC2)c(OC)c1		inactive: 1.53%
Cc1ccc(S(=O)(=O)N2CCOC2CNC(=O)C(=O)NCCc2c[nH]c3ccccc23)cc1 (stereo unspecified)	inconclusive [inhibitor, single point]	
Cc1nnc(SCc2ccc(F)cc2)n1NC/C=C/c1ccccc1	inconclusive [inhibitor, single point]	
COc1ccc(CN(C(=O)CN2C(=O)C(C)Oc3ccccc32)C2CCCC2)c(OC)c1 (stereo unspecified)	inconclusive [inhibitor, single point]	
CCOC(=O)c1nn(-c2ccc(F)cc2)c(=O)cc1OCC(=O)Nc1ccc(OCC)cc1		inactive: -7.83%
Cc1ccc(S(=O)(=O)Nc2ccc(-c3cn4ccc(C)cc4n3)cc2)cc1	inconclusive [inhibitor, single point]	
CCN(Cc1nc2ccccc2c(=O)[nH]1)C(=O)c1cccc(S(=O)(=O)N2CCc3ccccc32)c1	inconclusive [inhibitor, partial curve]	
COc1ccc(S(=O)(=O)N2CCOC2CNC(=O)C(=O)NCCc2ccccc2OC)cc1C (stereo unspecified)	inconclusive [inhibitor, single point]	
Cc1cc(C)c(N2CCN(S(=O)(=O)N3CCCCCC3)CC2)c(C)c1	inconclusive [inhibitor, single point]	
COc1cc(NC(=O)c2csc(-c3ccncc3)n2)cc(C(=O)Nc2cccc(C(F)(F)F)c2)c1	active: 23.1 µM and active: 8.2 µM	
COc1cc(CN(C)Cc2cccc3ccccc23)cc([N+](=O)[O-])c1O		inactive: 1.28%
Cc1c(C)c2c(OCC(=O)NC3CC3)cc3c(c2oc1=O)CCC(C)(C)O3		inactive: -28.4%
CCOCCCNc1nc2ccccc2[nH]1		inactive: -15.6%
O=S(=O)(NCCc1ccccc1)c1ccc(N2CCCCS2(=O)=O)cc1	active: 18.4 µM	
O=c1cc(CN2CCN(S(=O)(=O)c3ccc(Cl)cc3)CC2)nc2sc(-c3ccccc3F)nn12		inactive: -11%

SMILES	Potency	activity change, negative = growth inhibition
Cc1ccc(N2C(=O)CS(=O)(=O)C23C(=O)N(Cc2cccc(F)c2)c2ccccc23)cc1Cl (stereo unspecified)	active: 23.1 µM	
Cc1cc(NC(=O)CSc2nc3c(c(=O)n2Cc2ccccc2)SC(C)C3)no1 (stereo unspecified)	inconclusive [inhibitor, single point]	
O=C(c1cc(-c2ccco2)nc2ccccc12)N(Cc1nnc(-c2ccc(Cl)cc2)o1)C1CC1	inconclusive [inhibitor, single point]	
CN1C(=O)/C(=C/c2cccc(Cl)c2)Sc2ccc(C(=O)N3CCOCC3)cc21	inconclusive [inhibitor, single point]	
Cc1cccc(NC(=O)c2sc3nc4n(c(=O)c3c2C)N=C(c2ccc(F)cc2)CS4)c1C	inconclusive [inhibitor, full curve]	
NC(=O)CC[C@@H](N)C(=O)O	inconclusive [inhibitor, single point]	
C=CCc1cccc2cc(C(=O)NCc3cccnc3)c(=O)oc12	inconclusive [inhibitor, single point]	
CCC(C)c1ccccc1NC(=O)COC(=O)C1=COCCO1 (stereo unspecified)		inactive: 9.09%
CCOc1ccccc1NC(=O)N1CCCC(c2nc(-c3ccc(C)o3)no2)C1 (stereo unspecified)	inconclusive [inhibitor, single point]	
COc1cccc(-n2c(SCC(=O)NC3CCS(=O)(=O)C3)nc3ccccc3c2=O)c1 (stereo unspecified)		inactive: 3.4%
CN1CCN(CC(=O)Nc2sc3c(c2C(=O)Nc2ccccc2)CCCC3)CC1	inconclusive [inhibitor, single point]	
CCc1nnc(NS(=O)(=O)c2ccc(Nc3ccc([N+](=O)[O-])c4nonc34)cc2)s1		inconclusive: -30.8% [inhibitor]
CCOc1ccc(OCCOCCNCCOC)cc1		inactive: -0.162%
Cc1cc(=O)[nH]c(SCC(=O)c2ccc(C(C)C)cc2)n1		inactive: -25.7%
Cc1ccc2nc(SCC(=O)c3cc(C)n(C)c3C)[nH]c2c1	inconclusive [inhibitor, partial curve, poor fit]	
O=[N+]([O-])c1cc(C(F)(F)F)cc([N+](=O)[O-])c1NCCCN1CCOCC1		inactive: -18.8%
O=S(=O)(c1cccc(Br)c1)N1CCN(c2ccnc3cc(Cl)ccc23)CC1	inconclusive [inhibitor, single point]	
CCc1ccc(NC(=O)CSCc2nc(N)nc(Nc3ccccc3CC)n2)cc1	active: 14.6 µM	
O=C(NC(=S)NNC(=O)c1ccco1)c1ccc(F)cc1	inconclusive [inhibitor, single point]	
O=C(O)CNS(=O)(=O)Cc1ccccc1		inactive: 25.9%
COC(=O)c1ccc(C(=O)OC)c(NC(=O)CN2CCN(c3ccccc3OC)CC2)c1	inconclusive [inhibitor, single point]	
CCOc1ccccc1Nc1nnc(SCC(=O)N(C)C2CCS(=O)(=O)C2)s1 (stereo unspecified)		inactive: -21.3%
Cc1ccc(-c2csc(NC(=O)c3ccccc3F)c2C(=O)O)cc1	inconclusive [inhibitor, single point]	
